# Experimental data published in PubChem BioAssay AID1865 (National Center for Advancing Translational Sciences (NCATS), 2009).
# Out of some 280,000 compounds screened, about 540 (0.19%) were called active. The inconclusive results got no clear call from the source; some entries with a clear call stand among them for comparison. The call rests on the fitted dose curve; in most records, active means well fitted activation curve with a large enough effect; inconclusive means small, poorly fitted or top-dose-only effect; inactive means flat fitted curve, though single readings scatter. A potency beside an inconclusive call is a rough fit, not a confirmed value.
# Experiment: Quantitative High-Throughput Screen for Regulators of Epigenetic Control; further: nearly all actives have a fitted effect of over 60% in size
# Settings: murine LDR cells, GFP reporter derepression, 30 h; series mostly up to 53.9 µM
# Excerpt: NIH Molecular Libraries Screening Centers Network [MLPCN] NIH Chemical Genomics Center [NCGC] MLSCN Grant: 1 X01 MH079860-01 Assay Provider: Elisabeth D. Martinez, University of Texas SW Medical Center NCGC Assay Overview: The Locus Derepression (LDR) assay detects the derepression or induction of a GFP reporter that is stably integrated in a genomic region of murine cells that is presumably silenced. Transcription of the GFP reporter is controlled by a CMV promoter, which normally is constitutively active. However, this cell line, termed LDR, was selected for lack of constitutive production of GFP. GFP production can be induced by incubating the cells with histone deacetylase or DNA methyltransferase inhibitors (Martinez et al., 2006). Compounds that derepress or induce this reporter locus are identified by enumerating GFP positive cells using a laser-scanning microplate cytometer (Auld et al., 2006). This assay was screened against the MLSMR earlier (AID 597; (Johnson et al., 2008) and has been rescreened here against the expanded collection.
# NCGC Assay Protocol Summary: Three hundred LDR cells in 5 uL per well were dispensed into black, clear-bottom 1536-well plates. Twenty-three nL compound was transferred to the assay plate and cells were incubated 30 hours at 37 C. Medium was removed, cells were washed two times with PBS, and GFP-positive cells were enumerated as fluorescent objects between the sizes of 20 to 120 um width and depth using an Acumen Explorer. References Auld, DS, Johnson, RL, Zhang, YQ, Veith, H, Jadhav, A, Yasgar, A, Simeonov, A, Zheng, W, Martinez, ED, Westwick, JK, Austin, CP, Inglese, J (2006). Fluorescent protein-based cellular assays analyzed by laser-scanning microplate cytometry in 1536-well plate format. Methods Enzymol 414: 566-89. Johnson, RL, Huang, W, Jadhav, A, Austin, CP, Inglese, J, Martinez, ED (2008). A quantitative high-throughput screen identifies potential epigenetic modulators of gene expression. Anal Biochem 375: 237-48. Martinez, ED, Dull, AB, Beutler, JA, Hager, GL (2006). High-content fluorescence-based screening for epigenetic modulators. Methods Enzymol 414: 21-36.
# Potency means the concentration at half of the fitted maximal effect; tags describe the fitted curve by direction and shape.
row,Compound,Potency
1,Cc1[nH]c2ccccc2c1C1(O)C(=O)N(Cc2ccccc2)c2ccc(Cl)cc21 (configuration not stated),"inconclusive: 6.31 µM [activator, single point]"
2,CN(C(=O)c1ccc2c(=O)n3c(nc2c1)CCCCC3)c1ccccc1Cl,"inconclusive: 20 µM [activator, partial curve]"
3,CCOc1ccc(C2c3c(oc4ccc(C)cc4c3=O)C(=O)N2CCCN(C)C)cc1OC (configuration not stated),inactive
4,CC(=O)c1ccc(NC(=O)Nc2sc3nc4n(c(=O)c3c2C)CCC(C)CC4)cc1 (configuration not stated),"inconclusive: 35.5 µM [activator, single point]"
5,Nc1c(C(=O)NCc2ccco2)c2nc3ccccc3nc2n1CCc1ccccc1,inactive
6,N#C/C(=C/c1ccc(N2CCCCCC2)o1)c1cccc(F)c1,"inconclusive: 0.447 µM [activator, single point]"
7,CC1=NN2C(=N)/C(=C\c3cc(C)n(-c4ccccc4)c3C)C(=O)N=C2S1,"inconclusive: 31.6 µM [activator, single point]"
8,O=C(CSc1oc(-c2ccc(F)cc2)nc1S(=O)(=O)c1ccccc1)NC1CCCCC1,inactive
9,CCSc1nnc(NC(=O)c2cc(=O)c3cc(C)ccc3o2)s1,inactive
10,COc1ccc(-c2nnc(SCC(=O)Nc3c(C)cccc3C)nc2-c2ccc(OC)cc2)cc1,"inconclusive: 14.1 µM [activator, single point]"
11,CCOC(=O)c1ccc(NC(=O)c2oc3c(c2C)-c2nn(Cc4ccccc4Cl)cc2CC3)cc1,"inconclusive: 15.8 µM [activator, single point]"
12,O=C(Nc1cccc(C(=O)OCc2cc(=O)n3nc(C4CC4)sc3n2)c1)c1cccc(Cl)c1,active: 15.8 µM
13,COc1ccc(Nc2oc(/C=C/c3ccccc3OC)nc2C#N)cc1,"inconclusive: 15.8 µM [activator, single point]"
14,Oc1cc2c(cc1O)C1c3ccc(O)c(O)c3OCC1(O)C2 (configuration not stated),inactive
15,NC(=S)N/N=C/c1ccc(-c2ccc(SC(F)F)cc2)o1,"inconclusive: 31.6 µM [activator, single point]"
16,CC(=O)c1ccc(OC(=O)CCc2nc3ccccc3s2)cc1,"inconclusive: 20 µM [activator, single point]"
17,O=C(Nc1ccccc1)Nc1nnc(SCC(=O)N2CCCCC2)s1,"inconclusive: 0.316 µM [activator, full curve, poor fit]"
18,O=C(Oc1c(Cl)cc(Cl)c2cccnc12)c1cccs1,"inconclusive: 35.5 µM [activator, single point]"
19,O=C(NCCCN1CCN(c2cccc(Cl)c2)CC1)c1ccc2nc(Cc3ccccc3)oc2c1,inactive
20,CCCCn1c(SC(C)C(N)=O)nc2cc(C(=O)OC)ccc2c1=O (configuration not stated),"inconclusive: 35.5 µM [activator, single point]"
21,COc1ccc(S(=O)(=O)N2CCC(n3c(C)nc4cccnc43)CC2)cc1Cl,inactive
22,COc1ccc(/C(C)=N/NC(=S)NCc2ccco2)cc1,"inconclusive: 25.1 µM [activator, single point]"
23,CCOC(=O)/C(C#N)=N\Nc1cc(Cl)ccc1OC,"inconclusive: 15.8 µM [activator, single point]"

row,Compound,Potency
1,Cc1ccccc1Oc1nc2c(C)cccn2c(=O)c1/C=C(\C#N)C(=O)Nc1c(C)n(C)n(-c2ccccc2)c1=O,"inconclusive: 35.5 µM [activator, single point]"
2,O=C1CC(N2CCCCCC2)C(=O)N1c1ccc(F)cc1 (configuration not stated),"inconclusive: 35.5 µM [activator, single point]"
3,Cc1ccc(NC(=O)c2ccc3c(O)c(S(=O)(=O)c4ccc(Cl)cc4)c(=O)[nH]c3c2)cc1,inactive
4,CCOC(=O)c1cc2c(=O)n3ccccc3nc2n(CCCOC)c1=NC(=O)c1c(-c2c(F)cccc2Cl)noc1C,"inconclusive: 35.5 µM [activator, single point]"
5,O=C(Nc1ccc(Oc2cccc3ccccc23)cc1)c1ccco1,"inconclusive: 5.62 µM [activator, single point]"
6,O=C(CCN1C(=O)/C(=C/c2cccs2)SC1=S)NNC(=O)c1cccc(O)c1,"inconclusive: 35.5 µM [activator, single point]"
7,CCN(CC)c1ccc(C(=O)N/N=C/c2ccc(N3CCOCC3)cc2)cc1,"inconclusive: 31.6 µM [activator, single point]"
8,O=C(Cc1nc(=O)c2ccccc2s1)Nc1ccccc1,"inconclusive: 28.2 µM [activator, single point]"
9,CCc1ccc2oc(-c3cccc(NC(=O)COc4ccccc4Cl)c3)nc2c1,"inconclusive: 31.6 µM [activator, single point]"
10,Cn1nc([N+](=O)[O-])nc1Sc1cccc2cccnc12,"inconclusive: 5.62 µM [activator, single point]"
11,Cc1ccc(NC(=O)Cn2c(=O)nc(-c3ccccc3)c3ccccc32)cc1,"inconclusive: 35.5 µM [activator, single point]"
12,COc1ccc(C2CC(=O)c3cc(-c4nc(-c5ccc(C)cc5)cs4)c(=O)[nH]c3C2)cc1 (configuration not stated),inactive
13,COc1ccc(S(=O)(=O)NCCc2csc(-c3cccc(F)c3)n2)cc1OC,inactive
14,CCc1nn(CC(=O)NCCc2ccc(OC)c(OC)c2)c(=O)c2cc3occc3n12,"inconclusive: 35.5 µM [activator, single point]"
15,O=C(NCc1ccco1)c1ccc2c(=O)n(-c3ccccc3)c(=O)n(Cc3cccc(F)c3)c2c1,"inconclusive: 35.5 µM [activator, single point]"
16,O=C(CSc1cccc2cccnc12)OCC(=O)c1ccccc1,"inconclusive: 35.5 µM [activator, single point]"
17,COc1ccc(N=C2NC(=O)S/C2=C\c2ccc(N(C)C)cc2)cc1,"inconclusive: 15.8 µM [activator, single point]"
18,C=CCn1c(CCn2c3ccccc3c3ccccc32)n[nH]c1=S,"inconclusive: 31.6 µM [activator, single point]"
19,CCOc1ccc(CN2C(=O)C(=O)c3cccc(C)c32)cc1OC,"inconclusive: 6.31 µM [activator, single point]"
20,COc1ccc(-c2cc(C(F)(F)F)n3ncc(-c4ccccc4)c3n2)cc1,"inconclusive: 25.1 µM [activator, single point]"
21,Cc1nc(N2CCOCC2)nc(OC(C)C)c1[N+](=O)[O-],"inconclusive: 35.5 µM [activator, single point]"
22,CCOC(=O)C1=C(C)n2c(s/c(=C/c3cccc([N+](=O)[O-])c3)c2=O)=NC1c1ccc(O)c(OC)c1 (configuration not stated),inactive
23,Cc1ccc(C)c(/C(O)=C2\C(=O)C(=O)N(Cc3cccnc3)C2c2cccnc2)c1 (configuration not stated),"inconclusive: 20 µM [activator, single point]"

row,Compound,Potency
1,CCOc1ccc(C(=O)Nc2cccc(NC(=O)c3ccc(Cl)cc3Cl)c2)cc1,"inconclusive: 35.5 µM [activator, single point]"
2,CCN(CCO)c1nc(SC)nc2c1sc1nc(-c3ccco3)c3c(c12)CCC3,"inconclusive: 15.8 µM [activator, single point]"
3,COc1ccc(NC(=O)c2c(NCc3ccc(OC)c(OC)c3OC)sc3c2CCC3)c(OC)c1,"inconclusive: 31.6 µM [activator, single point]"
4,CCCNC(=O)CSc1c2c(nc3ccc(Cl)cc13)CCCC2,"inconclusive: 25.1 µM [activator, single point]"
5,CC(=O)c1ccc(NC(=O)CSc2nnc(-c3ccco3)c(-c3ccco3)n2)cc1,"inconclusive: 35.5 µM [activator, single point]"
6,CCOC(=O)CSc1nc(N)c(C#N)c(-c2ccc(OC)cc2)c1C#N,"inconclusive: 10 µM [activator, partial curve]"
7,COC(=O)c1cc(OC)c(OC)cc1NC(=O)CN1CCCCC1,inactive
8,O=C(C1CCCCC1)N(Cc1cccnc1)c1nc2c(F)cccc2s1,inactive
9,Cc1cc(N/N=C/c2ccc([N+](=O)[O-])o2)nc2ccccc12,active: 6.31 µM
10,Cc1ccc(C(=O)N/N=C/c2cccc(OC(=O)/C=C/c3ccco3)c2)cn1,inactive
11,CCc1ccc(S(=O)(=O)ON2C(=O)c3ccccc3C2=O)cc1,inactive
12,CC1N=C2c3ccccc3N=C(SCC(=O)NCc3ccc(Cl)cc3)N2C1=O (configuration not stated),inactive
13,Cc1cc(C)c2ccc(N)nc2c1O,"inconclusive: 20 µM [activator, single point]"
14,CCc1cccc(N=c2c([N+](=O)[O-])nn(-c3ccc4c(c3)OCCO4)n2O)c1,"inconclusive: 14.1 µM [activator, single point]"
15,CCc1ccc(OCC(=O)Nc2ccc(-c3nc4ccccc4o3)c(O)c2)cc1,"inconclusive: 31.6 µM [activator, single point]"
16,COc1cc(N2CCCC2)c(OC)cc1/C=C1/NC(=S)NC1=O,active: 15.8 µM
17,CCN1/C(=C/c2ccc3cc(C)ccc3[n+]2C)Sc2ccc3sccc3c21,active: 10 µM
18,CCCCN(CCCC)S(=O)(=O)c1ccc(C(=O)Nc2sc3c(c2C(N)=O)CCN(CC)C3)cc1,"inconclusive: 22.4 µM [activator, single point]"
19,Oc1ccccc1/C=N/Nc1ncc(Br)cn1,inactive
20,COc1ccccc1NC(=O)Cn1c(=O)n(CCc2ccccc2)c(=O)c2sc3ccccc3c21,"inconclusive: 35.5 µM [activator, single point]"
21,CC(=O)c1c(C)[nH]c(C(=O)CSc2ncnc3sc(-c4ccccc4)cc23)c1C,inactive
